The values that follow come from the supplement of paper PMC3334620.

Over roughly 33,000 sequences, “E-score (-0.5 to 0.5)” has its median near -0.013; the highest 2% begin near 0.3. Some of the results follow.

The experiment concerns the target T1, Msn1 (UniProt P22148).
T1 sequence: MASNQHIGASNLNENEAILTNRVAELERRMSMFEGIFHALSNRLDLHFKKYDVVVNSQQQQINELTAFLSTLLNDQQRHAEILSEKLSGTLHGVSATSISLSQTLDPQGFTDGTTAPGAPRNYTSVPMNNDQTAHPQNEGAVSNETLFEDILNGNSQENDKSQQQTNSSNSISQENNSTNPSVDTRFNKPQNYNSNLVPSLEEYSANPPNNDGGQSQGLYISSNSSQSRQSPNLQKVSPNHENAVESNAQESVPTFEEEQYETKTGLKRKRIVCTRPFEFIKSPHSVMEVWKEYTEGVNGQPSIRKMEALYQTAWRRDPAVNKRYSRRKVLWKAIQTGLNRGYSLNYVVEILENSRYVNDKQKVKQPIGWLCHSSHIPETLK
Nature of the experiment: PBM E-score (8-mer binding enrichment) (E-score (-0.5 to 0.5)); higher = stronger / more preferred TF binding; most listed sequences are background and not binding sites. To be noted: protein concentration: 200 nM; construct: GST-full length. In outline:
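Detection of bound protein used fluorescent anti-GST, with scans normalised by masliner. The proteins were GST-tagged yeast transcription factors applied at about 100-200 nM to universal all-10-mer Agilent arrays made double-stranded by primer extension. Each ungapped eight-base word, pooled with its reverse complement, was scored with an E-score from the Universal PBM Analysis Suite.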
As for AGCGGATG, the “PBM E-score” value amounted to 0.00745. Then ATACACGG, with 0.0626.

As for TGATAGCA, the “PBM E-score” value is -0.00624.

For CTGTCCGC, the “PBM E-score” value turned out to be 0.114. Consider AAATGATA, for which the “PBM E-score” value worked out at 0.211. Then ATGTAAAT, with 0.0942; and AGGGGCCC, with -0.298. Turning to GCACAAGC, the “PBM E-score” value was -0.0494. Then CTAATTAG, with 0.25. Then CCGAAGGA, with -0.0508; and AGAGCTAC, with -0.119. Then ATTCAGAA, with 0.0541. Take CGGCACTC: the “PBM E-score” value was -0.138. Next, CACGATCC: 0.0298; ACTATTCA: 0.108; CGGTGCAC: -0.156.

CTATAGCC: the “PBM E-score” value is -0.228. Next, AAGCGCTT: 0.312.

In the case of CCGTATAC, the “PBM E-score” value was -0.0814. Then CCGAGACA, with 0.319; and CATGGCCC, with -0.249; and ATCCGGTG, with -0.0397. Next, TCCGTTAA: 0.204.

Consider TAGGTTAA, for which the “PBM E-score” value came out at 0.0373. As to CAACCGCC, the “PBM E-score” value is -0.177.

As for CTCCAGAC, the “PBM E-score” value turned out to be 0.0625.

Take CGGTTCCC: the “PBM E-score” value is -0.0131. Next, CTTATGTC: 0.374; CAAGCGGC: 0.0281; GACGCGGC: 0.132. Next, ACTTGACA: -0.0312; CTCTTTAC: -0.199; CGACGTTA: 0.181. Take ACTACGGC: the “PBM E-score” value is -0.223. In the case of TCACTTAA, the “PBM E-score” value was found to be 0.134.

On to AAGCCCCT, for which the “PBM E-score” value is -0.285. Then ATATTGAC, with -0.0639. With GTAATACA, the “PBM E-score” value was found to be 0.0721. On to ACCATTAG, for which the “PBM E-score” value is 0.02.

GTTGTCAA: the “PBM E-score” value was 0.0641. Next, GCACATGA: -0.0829. Next, CCCGGTCA: -0.0171.

As for GGAATACC, the “PBM E-score” value is -0.0823. Next, AGAAAACC: 0.0822; GCTATTAA: 0.0937; ATTCTGTC: 0.127. Next, ACATAGCT: -0.0112; GTCTCTGA: 0.0973; CGCTTTAA: -0.0635. On to AATGTCAC, for which the “PBM E-score” value stood at 0.381.

As for ACTCGAAA, the “PBM E-score” value was -0.036. Next, ACGTCCGC: 0.14. Take TACATCTA: the “PBM E-score” value was found to be 0.105. Then GAGAGACC, with -0.125; and ACAACCGT, with -0.0303.

Take TTGACCAA: the “PBM E-score” value worked out at 0.079.

As to ACATGGCC, the “PBM E-score” value came to 0.136. Then ACAACCTA, with 0.0651. Next, CGTAACAA: 0.0345; CGAAGGAG: -0.207. With ACGAGTCG, the “PBM E-score” value was -0.0461. Turning to ATAAACTA, the “PBM E-score” value is 0.0785. Take TCTCCTCA: the “PBM E-score” value was -0.078. As for AAGTAAGC, the “PBM E-score” value was found to be 0.149. Then CCGAGGTC, with 0.0121. Then ATCCTTAA, with -0.126. Take GGAGTCTA: the “PBM E-score” value is -0.254. For the sequence ATATCTCA, the “PBM E-score” value turned out to be 0.253. Next, GAGGCTGA: -0.175. Next, GGCGAGTA: -0.0351; GTGACTAA: 0.133.

For the sequence GAGTCCGA, the “PBM E-score” value worked out at 0.243.

On to GCCTAAGA, for which the “PBM E-score” value was 0.0504. With ACCCACGA, the “PBM E-score” value is 0.052.

Turning to TACGAGTA, the “PBM E-score” value came out at 0.118. Next, CTCCAGCC: -0.227.

For CTCGTCCC, the “PBM E-score” value was 0.228. Then ATTATTTG, with 0.0904. Then ACCTTTCG, with -0.0277; and GATATAAC, with -0.0351; and GTGGGGGA, with -0.141. Next, CTTCCCAA: 0.107; CGATTGGC: 0.046; ATCACCCG: -0.17. Take GTTCTGGA: the “PBM E-score” value is 0.133. Then ACAGGTAA, with 0.027.
